Results as given in PMC4336329 (PLoS ONE, 2015).
Screen size: about 310,000 compounds; about 2,200 (0.71%) showed an effect of 50% or more. Effects have a minus sign here. This is one part of the list.

These compounds were tested against human ether-à-go-go-related gene (hERG) potassium channel (human, UniProt Q12809) (assay: primary screen, population patch clamp on CHO cells stably expressing hERG).
Chain of human ether-à-go-go-related gene (hERG) potassium channel (Q12809 whole entry, looked up): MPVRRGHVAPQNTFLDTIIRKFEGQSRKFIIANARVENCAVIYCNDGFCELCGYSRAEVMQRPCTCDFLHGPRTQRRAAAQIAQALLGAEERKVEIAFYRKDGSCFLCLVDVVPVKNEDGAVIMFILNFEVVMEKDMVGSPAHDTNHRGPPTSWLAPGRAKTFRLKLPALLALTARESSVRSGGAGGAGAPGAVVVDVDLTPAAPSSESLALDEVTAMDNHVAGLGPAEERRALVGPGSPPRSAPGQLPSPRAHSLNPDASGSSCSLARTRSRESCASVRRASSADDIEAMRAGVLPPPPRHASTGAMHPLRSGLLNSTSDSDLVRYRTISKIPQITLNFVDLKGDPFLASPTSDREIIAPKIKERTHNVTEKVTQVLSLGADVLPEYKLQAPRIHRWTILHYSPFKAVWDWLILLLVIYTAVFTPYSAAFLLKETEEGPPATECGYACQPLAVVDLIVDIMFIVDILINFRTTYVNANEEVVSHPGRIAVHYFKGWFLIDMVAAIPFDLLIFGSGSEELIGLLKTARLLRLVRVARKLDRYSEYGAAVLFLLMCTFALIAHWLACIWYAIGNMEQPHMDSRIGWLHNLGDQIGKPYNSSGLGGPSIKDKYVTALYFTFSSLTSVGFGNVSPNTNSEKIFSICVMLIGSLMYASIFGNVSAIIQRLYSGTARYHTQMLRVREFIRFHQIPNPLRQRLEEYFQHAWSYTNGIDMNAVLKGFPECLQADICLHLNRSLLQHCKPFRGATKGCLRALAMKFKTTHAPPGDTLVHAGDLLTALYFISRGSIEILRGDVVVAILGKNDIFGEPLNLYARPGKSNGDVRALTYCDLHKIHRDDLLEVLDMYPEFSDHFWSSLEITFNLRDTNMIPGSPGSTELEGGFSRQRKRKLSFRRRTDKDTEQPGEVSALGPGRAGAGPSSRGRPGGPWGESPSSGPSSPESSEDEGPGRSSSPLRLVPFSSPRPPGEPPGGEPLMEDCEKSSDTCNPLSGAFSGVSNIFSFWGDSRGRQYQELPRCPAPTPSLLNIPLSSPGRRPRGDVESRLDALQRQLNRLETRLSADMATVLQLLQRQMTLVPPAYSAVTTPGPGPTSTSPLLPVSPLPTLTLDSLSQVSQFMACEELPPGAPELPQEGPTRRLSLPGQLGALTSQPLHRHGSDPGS

SMILES	hERG current change (%, negative = inhibition) at 1uM
O=c1[nH]c(=S)n(-c2ccccc2F)c(O)c1C=NCCN1CCNCC1	12.5%
Cc1cccc(CNCCc2ccccc2)n1.Cl	1.19%
Cc1cc(C)c(C(=O)COC(=O)C2CCN(c3ccc(C(F)(F)F)cn3)CC2)cc1C	8.71%
COC(=O)c1cn(Cc2ccccn2)c(=O)c2ccccc12	5.73%
O=C(NCc1ccc(OC(F)(F)F)cc1)c1ccc2c(c1)S(=O)(=O)c1ccccc1C2=O	0.355%
Cl.Nc1cccc2[nH]c(C(F)(F)F)nc12	14.6%
COc1ccc(N=Cc2sc3ccccc3c2Cl)cc1	16.6%
CCN1CCN(c2ccc(S(=O)(=O)N3CCCCC3)cc2NC(=O)/C=C/c2ccc([N+](=O)[O-])cc2)CC1	6.53%
Cc1cc(C)c2cc(C#N)c(SCC(=O)Nc3ccc4c(c3)OCO4)nc2c1	13.7%
COc1ccccc1NC(=O)c1cn(CCC#N)nc1-c1cccc(Cl)c1	13.6%
Cc1nc(SCC(=O)NCC(F)(F)F)c2c(-c3cccs3)csc2n1	5.71%
O=C(CSc1nnnn1-c1ccccc1)Nc1ccccc1	17.9%
CC(C)OC(=O)CCCNc1ccc([N+](=O)[O-])cc1[N+](=O)[O-]	3.75%
OCCN1CCN(c2ncnc3sc(-c4ccccc4)cc23)CC1	3.72%
COc1ccc(NC(=O)N/C=C/c2ccco2)cc1	14.7%
CC(=O)O.CNc1nc(N/N=C/c2cc3c(cc2[N+](=O)[O-])OCO3)nc(Nc2ccccc2)n1	12.5%
COc1cccc(C(=O)NCC(=O)OCC(=O)C(C)(C)C)c1	8.92%
COCCNC(=O)c1ccccc1NC(=O)COc1ccccc1	2.56%
COc1ccccc1CNC(=O)N1CCN(c2ccccc2Cl)CC1	8.42%
COc1ccc(-c2csc(NC(=O)c3ccc(S(C)(=O)=O)cc3)n2)cc1	4.87%
Cc1ccc2cc(CN(Cc3cccs3)Cc3nnnn3CC3CCCO3)c(=O)[nH]c2c1 (stereo not shown)	8.88%
O=C(NCCNC(=O)c1cc(OCC(F)(F)F)ccc1OCC(F)(F)F)Nc1cccc(C(F)(F)F)c1	-0.74%

SMILES	hERG current change (%, negative = inhibition) at 1uM
O=C(Nc1cccc([N+](=O)[O-])c1)Nc1ccc2c(c1)CCC2	12.1%
CCCC(=O)c1ccc(N2CCN(S(=O)(=O)c3ccccc3)CC2)c(F)c1	11.3%
Cc1ccc(NC(=O)C(=O)N2CCCC2)cc1Cl	17.6%
Cc1ccc(-n2c(=S)[nH]c3c(oc4ccccc43)c2=O)cc1	13%
O=C(O)c1ccc(COc2ccccc2/C=C2/NC(=O)N(c3cccc(Cl)c3)C2=O)cc1	6.51%
CCOc1ccccc1CNC(=O)C1CCC(=O)N1C(C)C (stereo not shown)	8.34%
COc1cc(C(=O)N[C@H](C(=O)NC(C)C23CC4CC(CC(C4)C2)C3)C(C)C)cc(OC)c1OC (stereo partly shown)	14%
CN(C)S(=O)(=O)c1ccc(Cl)c(NC(=O)COC(=O)CN2C(=O)C3CCCCC3C2=O)c1 (stereo not shown)	5.32%
CN(C)S(=O)(=O)c1ccc(/C(O)=C2/C(=O)C(=O)N(Cc3cccnc3)C2c2cccs2)cc1 (stereo not shown)	7.27%
CCOC(=O)C1=C(C)NC(=O)NC1c1ccc(-c2ccc(F)cc2)o1 (stereo not shown)	-8.73%
Cc1cccc(C)c1NC(=O)c1ccccc1C(=O)O	8.61%
CCCc1cc(=O)oc2c3c(cc(OCC(=O)NCCCn4ccnc4)c12)OC(C)(C)CC3	-33%
O=C(CN(c1ccc(F)cc1)S(=O)(=O)c1ccc2c(c1)OCCO2)N1CCOCC1	8.45%
CC(C)[C@H](NS(=O)(=O)c1ccc(Cl)cc1)C(=O)OCC(=O)c1c(N)n(C)c(=O)n(C)c1=O	-9.36%
CS(=O)(=O)c1ccc(NCC2CCCO2)c([N+](=O)[O-])c1 (stereo not shown)	15.1%
CCOc1cc2c3c(c1)C1(Nc4ccccc4S1)C(=O)N3C(C)(C)CC2C (stereo not shown)	12.1%
Fc1ccccc1Cn1nnc2c(NCc3ccccn3)ncnc21	-1.34%
CCC(=O)Nc1nnc(SCCN2CCOCC2)s1.Cl	20.8%
Clc1ccc(CSc2ccc(-c3ccco3)nn2)cc1	12.8%
Cc1ccc2[nH]c3c(=O)n(CC(=O)NCc4ccco4)ncc3c2c1	14.1%
Cc1cc(C)cc(N2C(N)=NC(N)=NC2c2ccccc2F)c1.Cl (stereo not shown)	10.3%
Fc1cccc(Nc2ncnc3c2cnn3-c2ccccc2)c1	15.8%

SMILES	hERG current change (%, negative = inhibition) at 1uM
O=c1c(-c2ccccc2)cnc2n1CCS2	-1.6%
Cc1ccc(S(=O)(=O)NC(=NC2CCCCC2)c2ccccc2)cc1	-26.8%
CCOC(=O)C1=C(CN2CCN(C(=O)OCC)CC2)NC(=O)NC1c1ccc2c(c1)OCO2 (stereo not shown)	-5.46%
COc1ccc(CNC(=O)c2ccc(SC)cc2OC)cc1	8.14%
Cn1c2c(c(=O)n(C)c1=O)CN(CCN1CCNCC1)CN2	1.08%
COC(=O)c1cc2n(n1)CCCNC2=O	14.1%
COCCCN(C(=O)CCOc1ccccc1C)c1c(N)n(Cc2ccccc2)c(=O)[nH]c1=O	15.3%
O=C1c2ccccc2C(=O)N1c1cccc(-c2nc3ccccc3o2)c1	12.1%
CCCCn1c(O)c(C(CC)=NCc2ccco2)c(=O)[nH]c1=O	5.95%
CCCCOCC(O)CCc1n[nH]c(=S)n1-c1ccccc1 (stereo not shown)	16.5%
[N-]=[N+]=NCCN1CCN(CCc2ccccc2)CCC1=O	11.7%
COc1cc(OC)c(C2SCCS2)c(OC)c1	3.79%
CCOC(=O)c1c(NC(=O)CCCN2CCOCC2)sc2c1CC(C)(C)OC2	4.64%
O=C(CCNS(=O)(=O)c1ccc(Br)cc1)NC1CCN(Cc2ccccc2)CC1	-19.7%
COc1cc(NC(=O)CC(C)S(=O)(=O)c2cc3c(cc2C)NC(=O)CO3)cc(OC)c1OC (stereo not shown)	8.71%
O=C1C2C3C=CC(C3)C2C(=O)N1CNc1ccccc1 (stereo not shown)	13.9%
O=C(Nc1ccccc1Cl)Nc1ccnn1C1CCN(C(=O)CCN2CCCO2)CC1	18.4%
O=C(NCc1ccccc1)c1cc(-n2cnnc2)ccc1Cl	5.53%
O=C(Cn1cnc2sc3c(c2c1=O)CCCC3)NCC(=O)Nc1c(F)cccc1F	-2.27%
OC1c2cc(Br)ccc2N=C2CCCN21 (stereo not shown)	7.94%
CN(CCOc1ccc(CC2SC(=O)NC2=O)cc1)c1ccccn1.O=C(O)/C=C\C(=O)O (stereo not shown)	6.3%
O=C(C1CCCN(c2nnc(-n3cccc3)s2)C1)N1CCC2(CC1)OCCO2 (stereo not shown)	-0.521%

SMILES	hERG current change (%, negative = inhibition) at 1uM
COc1cc2c(C(=O)N3CCN(c4ccccc4)CC3)c(C)oc2cc1Br	4.92%
CCOC(=O)c1c(C)[nH]c(C)c1S(=O)(=O)N1CCOCC1	12%
COc1ccc(-n2c(Cn3c(=O)sc4ccccc43)nnc2SCC(=O)N2CCOCC2)cc1	6.43%
CC(C)N1CC(O)=C(c2nc3ccccc3[nH]2)C1=N	1.91%
CC1CCCN(CCOCCOc2ccc(Cl)cc2Br)C1.O=C(O)C(=O)O (stereo not shown)	-31.8%
CCOC(=O)Cc1csc(NC(=O)CS(=O)(=O)Cc2ccccc2)n1	11.1%
c1n[nH]c(NCc2ccc3c(c2)OCO3)n1	2.01%
CCOc1ccccc1NC(=O)C1C2C=CC(C2)C1C(=O)O (stereo not shown)	15.1%
CC1(C)c2[nH]c3ccccc3c2C[C@@H]2C(=O)N(Cc3ccccc3)C(=O)N21	24.9%
CCCS(=O)(=O)N1CCC(C(=O)NCCCOC)CC1	5.16%
COc1ccccc1CCC(=O)N(C)C1CCCN(Cc2ccccc2F)C1 (stereo not shown)	4.21%
Cc1c(C(=O)CN2CCSCC2)c2ccccc2n1C	-10.7%
NNC(=O)c1cc(-c2ccc(N)cc2)nc2ccc(Br)cc12	15.6%
O=C(COC(=O)c1c(Cl)cccc1Cl)NC1CCCCC1	11.1%
Cc1ccsc1C(=O)C1CCCN(Cc2sc(N(C)C)nc2Cl)C1 (stereo not shown)	8.76%
Cc1ccccc1OCC(O)Cn1c(NCc2ccco2)nc2c1c(=O)n(C)c(=O)n2C (stereo not shown)	2.07%
COc1cccc(-c2c(-c3cc(OC)cc(OC)c3)n(C)c3ccc(Br)cc23)c1	10.8%
Cc1ccccc1C(=O)NC(=S)Nc1sc2c(c1C#N)CCC(C)C2 (stereo not shown)	8.73%
COCCCNC(=O)CC(NS(=O)(=O)c1ccc(Cl)cc1)c1ccc(OC)cc1 (stereo not shown)	7.54%
CCc1cccc(NC(=S)N(CCN(C)C)C2CCN(C(C)C)CC2)c1	14.3%
COc1cccc2c1OC1(C)CC2NC(=O)N1c1cccc(C(=O)N2CCN(c3ccccn3)CC2)c1 (stereo not shown)	12.6%
O=C(O)CCN1C(=O)C2C3c4ccccc4C(c4ccccc43)[C@@H]2C1=O (stereo partly shown)	1.03%
